The campaign covered roughly 310,000 compounds. About 2,200 (0.71%) showed an effect of 50% or more. Effects have a minus sign here. The list shows a part of the results.

human ether-à-go-go-related gene (hERG) potassium channel, sequence (Q12809 whole entry, looked up): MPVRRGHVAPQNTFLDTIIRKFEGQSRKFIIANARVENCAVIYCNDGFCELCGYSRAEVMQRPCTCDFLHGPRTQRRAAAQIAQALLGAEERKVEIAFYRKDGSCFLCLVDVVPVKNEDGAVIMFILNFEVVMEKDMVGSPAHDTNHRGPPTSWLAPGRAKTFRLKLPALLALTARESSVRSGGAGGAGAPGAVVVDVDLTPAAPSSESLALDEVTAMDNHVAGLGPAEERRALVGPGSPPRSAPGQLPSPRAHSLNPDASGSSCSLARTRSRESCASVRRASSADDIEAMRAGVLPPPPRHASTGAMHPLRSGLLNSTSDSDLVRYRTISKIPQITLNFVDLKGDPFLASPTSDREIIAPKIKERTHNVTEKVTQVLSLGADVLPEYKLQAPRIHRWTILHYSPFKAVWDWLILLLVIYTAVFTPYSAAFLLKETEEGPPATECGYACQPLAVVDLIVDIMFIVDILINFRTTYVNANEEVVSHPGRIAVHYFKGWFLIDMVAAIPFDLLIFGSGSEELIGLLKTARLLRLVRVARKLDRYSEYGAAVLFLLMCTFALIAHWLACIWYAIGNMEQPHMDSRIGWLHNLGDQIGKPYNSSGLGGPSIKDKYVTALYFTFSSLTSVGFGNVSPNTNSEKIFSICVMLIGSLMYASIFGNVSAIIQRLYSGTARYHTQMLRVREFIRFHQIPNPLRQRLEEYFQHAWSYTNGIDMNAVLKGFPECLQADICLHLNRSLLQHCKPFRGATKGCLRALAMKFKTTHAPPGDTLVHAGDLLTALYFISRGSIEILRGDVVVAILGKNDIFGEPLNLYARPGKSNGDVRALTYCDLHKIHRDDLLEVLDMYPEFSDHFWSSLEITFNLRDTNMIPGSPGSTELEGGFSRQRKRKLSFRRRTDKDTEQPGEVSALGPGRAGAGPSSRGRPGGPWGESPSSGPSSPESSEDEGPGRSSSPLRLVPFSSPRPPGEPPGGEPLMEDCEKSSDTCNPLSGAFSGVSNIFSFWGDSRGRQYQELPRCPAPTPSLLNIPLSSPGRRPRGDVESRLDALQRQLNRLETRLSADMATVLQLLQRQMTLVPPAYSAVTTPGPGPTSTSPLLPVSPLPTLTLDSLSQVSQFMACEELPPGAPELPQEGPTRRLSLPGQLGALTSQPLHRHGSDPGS

The assay concerns the target human ether-à-go-go-related gene (hERG) potassium channel (human, UniProt Q12809). Description: primary screen, population patch clamp on CHO cells stably expressing hERG.
For `CC(NC(=O)COC(=O)Cc1ccccc1[N+](=O)[O-])c1ccccc1` (stereo not shown), the “hERG current change (%, negative = inhibition) at 1uM” value is recorded as 5.9%. On to `O=C(Cc1cccs1)Nc1ccc(C(=O)O)cc1`, for which the “hERG current change (%, negative = inhibition) at 1uM” value is on record as -1.57%. The value for `O=C1CN(c2ccccc2Cl)C(=O)CN1c1ccccc1Cl` was 6.48%; that for `O=C(Nc1cccnc1)c1cc(-c2cccs2)on1` was 3.27%; that for `O=C(CN1C(=O)C2C3CC(C(Br)C3Br)C2C1=O)OCC(=O)c1cccc([N+](=O)[O-])c1` (stereo not shown) was 9.95%. Take `CCCOc1ccc(N2C(=O)CC(N(Cc3ccco3)C(=O)CC)C2=O)cc1` (stereo not shown): the “hERG current change (%, negative = inhibition) at 1uM” value is listed as 7.24%. On to `O=C(NCCN1C(=O)C2C3C=CC(C3)C2C1=O)Nc1ccccc1O` (stereo not shown), for which the “hERG current change (%, negative = inhibition) at 1uM” value turned out to be 1.22%. The value for `CN(C)c1cccc(C(=O)NCc2ccc3c(c2)OCO3)c1` was 7.91%.

Regarding `COc1ccc(/C=C2\SC(=S)N(NS(=O)(=O)c3ccccc3)C2=O)c(OC)c1`, the “hERG current change (%, negative = inhibition) at 1uM” value turned out to be 4.11%. The value for `CC1CCC2C(=O)N(c3cccc(OS(=O)(=O)c4ccccc4)c3)C(=O)C2C1` (stereo not shown) was -4.73%. Turning to `O=C(CCN1C(=O)/C(=C/c2ccccc2Cl)SC1=S)NCCc1ccc(O)cc1`, the “hERG current change (%, negative = inhibition) at 1uM” value worked out at 19%.

Turning to `Cc1ccccc1/C=N/Nc1ncnc2nc[nH]c12`, the “hERG current change (%, negative = inhibition) at 1uM” value turned out to be 11.1%. In the case of `Cc1cc(C)c2nc(N(CCCN(C)C)C(=O)C3=COCCO3)sc2c1.Cl`, the “hERG current change (%, negative = inhibition) at 1uM” value was -21.9%. `O=C(Nc1ccc(F)cc1)C(c1ccccc1)N1CCN(S(=O)(=O)c2ccc3ccccc3c2)CC1` (stereo not shown): the “hERG current change (%, negative = inhibition) at 1uM” value was 6.85%.

In the case of `Cc1nn(CCCC(=O)Nc2cc(Oc3ccc(F)cc3)cc([N+](=O)[O-])c2)c(C)c1[N+](=O)[O-]`, the “hERG current change (%, negative = inhibition) at 1uM” value was -8.22%. Turning to `O=C(OCc1nnc(-c2ccccc2)o1)c1cc(=O)c2ccccc2o1`, the “hERG current change (%, negative = inhibition) at 1uM” value stood at 17.9%. The value for `CCNC(=O)NC(=O)C(C)OC(=O)c1c(C)nn(Cc2ccccc2Cl)c1Cl` (stereo not shown) was 11.4%; that for `[O-][n+]1ccc(C(O)c2ccccc2)cc1` (stereo not shown) was 22.1%; that for `COc1ccc(N2C3=C(C(=O)CC(C)(C)C3)C(c3ccccc3OC)C3=C2CC(C)(C)CC3=O)cc1` was 11.6%. As for `CC(=O)c1ccccc1OCC(O)CNC1CCCC1.Cl` (stereo not shown), the “hERG current change (%, negative = inhibition) at 1uM” value was found to be 4.81%.

Consider `Cc1cc(S(=O)(=O)N2CCCC2)ccc1OCC(=O)NCc1ccco1`, for which the “hERG current change (%, negative = inhibition) at 1uM” value was determined as 0.251%.

Take `Cc1ccc(S(=O)(=O)NC2=NCN(CCc3ccccc3)CN2)cc1`: the “hERG current change (%, negative = inhibition) at 1uM” value was determined as 11.8%. `O=C(CSc1nc2nn(-c3ccccc3)c(=O)c-2c2n1CCCCC2)Nc1ccc(F)cc1F`: the “hERG current change (%, negative = inhibition) at 1uM” value was -2.84%.

For `Cc1cc(N2CCCC(C(=O)Nc3ccc4c(c3)CCC4)C2)n2ncnc2n1` (stereo not shown), the “hERG current change (%, negative = inhibition) at 1uM” value is recorded as -27.3%. Turning to `CCn1nc(C)c(NC(=O)CSc2nnc(-c3ccco3)n2C)c1C`, the “hERG current change (%, negative = inhibition) at 1uM” value was found to be 6.3%. The value for `CC(C)Cn1c(=O)c2sccc2n2c(CCCC(=O)NC3CCN(Cc4ccccc4)CC3)nnc12` was 14.8%; that for `COc1ccc(C)cc1NC(=O)NC1CCN(Cc2ccccc2)CC1` was -17.4%. Regarding `Cn1c(=O)c2c(nc(Cc3ccc(N)cc3)n2C)n(C)c1=O`, the “hERG current change (%, negative = inhibition) at 1uM” value worked out at 4.42%. The value for `CCc1ccc2[nH]c3nc(N/N=C/c4ccc(O)cc4O)nnc3c2c1` was 11.5%; that for `COc1ccccc1C(=O)Nc1ccc2c(c1)n(C)c(=O)n2C` was 8.65%. Regarding `O=C(NC(=S)Nc1ccc2cn[nH]c2c1)c1ccccc1`, the “hERG current change (%, negative = inhibition) at 1uM” value was 4.86%. On to `c1ccc2c(Nc3ccc4c(c3)OCCO4)c3c(nc2c1)CCCC3`, for which the “hERG current change (%, negative = inhibition) at 1uM” value is recorded as -83.5%. The value for `COc1cc(C#N)ccc1OCC(=O)NCCC1=CCCCC1` was 8.37%; that for `C=CCN1C=CC(=CC=C(C#N)C#N)C=C1` was 10.5%. In the case of `Cc1cc(C)cc(N(CC(=O)Nc2ccccc2C(=O)N2CCOCC2)S(C)(=O)=O)c1`, the “hERG current change (%, negative = inhibition) at 1uM” value stood at 14.6%.

In the case of `O=c1[nH]c(CSc2ncc(-c3ccc(F)cc3)n2Cc2ccco2)nc2ccccc12`, the “hERG current change (%, negative = inhibition) at 1uM” value is given as -5.51%.

Turning to `O=C(Nc1ccccc1)N1CCCCC1c1cccnc1` (stereo not shown), the “hERG current change (%, negative = inhibition) at 1uM” value stood at 7.75%.

Turning to `CC1CCN(C(=S)c2ccc(O)cc2)CC1`, the “hERG current change (%, negative = inhibition) at 1uM” value is listed as -2.39%. Regarding `CCCCn1c(N)c(N(CC(C)C)C(=O)CC2OC(=O)c3ccccc32)c(=O)[nH]c1=O` (stereo not shown), the “hERG current change (%, negative = inhibition) at 1uM” value is on record as 6.41%. As to `Cc1ccc(CNCc2cc3c(C(C)(C)C)nn(-c4ccccc4)c3[nH]c2=O)cc1`, the “hERG current change (%, negative = inhibition) at 1uM” value was 13.3%. The value for `C/C(=N/NC(=O)OC(C)(C)C)c1ccco1` was 7.83%; that for `O=C1c2ccsc2SCCN1Cc1ccccc1` was 16.8%; that for `COc1cccc(C(=O)NCCOc2cc(C)cc(C)c2)c1` was 10.9%.

Source of the values: publication PMC4336329 (PLoS ONE, 2015).
